# The list shows a part of the results.
# Biological target: no compound (DMSO)
# Assay: log2 fold change of degron read counts, EGFP-low vs EGFP+ sorted cells; higher = lower degron-EGFP level without compound (poor expression or instability)
# Settings: compound: DMSO control; 18 h
# 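Note: jurkat cells carrying a lentiviral library of mutant zinc finger degrons fused to EGFP plus mCherry, mCherry+ cells FACS sorted, degron abundance counted by next-generation sequencing.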
row,Sequence,log2 fold change of degron read counts
1,FTCPICGRSFTQKGNLLRHIKL,-0.12
2,FFCDICGAAFTQKGNLLRHIKL,-0.578
3,FECEICGRFFTQKGNLLRHIKL,-2.68
4,FECEICGHRFTQKGNLLRHIKL,-2.52
5,FHCNVCGAMFTQKGNLLRHIKL,-0.945
6,LCCEICGFFCTQKGNLLRHIKL,1.28
7,FWCNQCGAQFTQKGNLLRHIKL,-0.0268
8,FLCDICGAGFTQKGNLLRHIKL,-1.39
9,FLCEQCGAFFTQKGNLLRHIKL,-0.148
10,FFCEICGRMFTQKGNLLRHIKL,0.29
11,FNCPICGADFTQKGNLLRHIKL,-0.376
12,FSCDICGADFTQKGNLLRHIKL,-1.85
13,FCCEICGRHFTQKGNLLRHIKL,-0.978
14,FYCPQCGAPFTQKGNLLRHIKL,-0.426
15,FQCEVCGAHFTQKGNLLRHIKL,-1.67
16,FRCEICGHCFTQKGNLLRHIKL,-1.3
17,FRCPICGAMFTQKGNLLRHIKL,0.559
18,FNCNQCGRPFTQKGNLLRHIKL,0.241
19,FYCPICGHFFTQKGNLLRHIKL,0.886
20,FQCPICGAPFTQKGNLLRHIKL,0.319
21,FGCPICGHPFTQKGNLLRHIKL,0.644
22,FWCNQCGRYFTQKGNLLRHIKL,1.78
23,FCCPICGAKFTQKGNLLRHIKL,-0.585
24,FNCDVCGAVFTQKGNLLRHIKL,-1.19
25,FACNQCGHGFTQKGNLLRHIKL,0.173

row,Sequence,log2 fold change of degron read counts
1,FTCDQCGAFFTQKGNLLRHIKL,-1
2,FACSVCGHMFTQKGNLLRHIKL,-0.089
3,FECPICGHAFTQKGNLLRHIKL,-1.16
4,FCCSVCGHHFTQKGNLLRHIKL,-0.215
5,FECDVCGAGFTQKGNLLRHIKL,-1.75
6,FACEVCGAKFTQKGNLLRHIKL,-2.17
7,LQCEICGFECTQKGNLLRHIKL,-1.05
8,FDCEICGAMFTQKGNLLRHIKL,-0.787
9,LQCPICGFKCTQKGNLLRHIKL,0.357
10,LQCNQCGFECTQKGNLLRHIKL,-0.926
11,LQCEICGFGCTQKGNLLRHIKL,0.00964
12,FHCPICGRLFTQKGNLLRHIKL,-0.575
13,FWCNQCGRFFTQKGNLLRHIKL,1.97
14,FTCPICGHYFTQKGNLLRHIKL,-0.153
15,FCCNICGAPFTQKGNLLRHIKL,0.374
16,FVCNICGAPFTQKGNLLRHIKL,0.0843
17,LWCNQCGFNCTQKGNLLRHIKL,2.01
18,FFCDICGAGFTQKGNLLRHIKL,-1.16
19,FRCDVCGAPFTQKGNLLRHIKL,-0.453
20,FMCNICGAGFTQKGNLLRHIKL,-0.436
21,FNCEICGAVFTQKGNLLRHIKL,-1.41
22,LQCPICGFYCTQKGNLLRHIKL,1.1
23,FECNICGAYFTQKGNLLRHIKL,-0.522
24,FCCNQCGRCFTQKGNLLRHIKL,0.184
25,LICPICGFHCTQKGNLLRHIKL,0.619

# Reference: the supplement of paper PMC12645437, “Orthogonal IMiD-Degron Pairs Induce Selective Protein Degradation in Cells” (ACS Chemical Biology, 2025)
